# Experimental data reported in the supplement of paper PMC9135407.
# Several values for one entry are separate records, joined by “and”; a condition that tells them apart may be missing. Identical values can stand only once. Counter-ions that a name gives are not always drawn. About 620 (11%) of roughly 5,800 compounds showed activity.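 The calls were made as follows: active = score above a cut-off or among the top three wells of a plate; in these data no inactive exceeds 0.85.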 The list shows a part of the results, in another mix than the full data.
# Test system: primary human hepatic stellate cells (donor 1)
# Experiment: scaled lipid accumulation score (0 = DMSO-like, 1 = nortriptyline-like); higher = stronger HSC inactivation (lipid re-accumulation), active = hit call of the paper
# Conditions: 48 h
# [1] = library stock concentration: 10 mM
# [2] = library stock concentration: 3.33 mM
# [3] = library stock concentration: 6 mM
# [4] = library stock concentration: 80 uM
# [5] = library stock concentration: 400 uM
# [6] = library stock concentration: 1 mM
smiles,measurement,setting,value
CC[C@@]1(O)C(=O)OCc2c1cc1n(c2=O)Cc2cc3ccccc3nc2-1 [(S)-(+)-Camptothecin],scaled lipid accumulation score,[1],inactive: 0.24
CC[C@@]1(O)C(=O)OCc2c1cc1n(c2=O)Cc2cc3ccccc3nc2-1 [Camptothecin],scaled lipid accumulation score,[2],inactive: ≤ 0
same,scaled lipid accumulation score,library stock concentration: 5.7 mM,inactive: ≤ -0.006
same,scaled lipid accumulation score,[1],inactive: ≤ 0
"CC[C@@]1(O)C(=O)OCc2c1cc1n(c2=O)Cc2cc3ccccc3nc2-1 [Camptothecine (S,+)]",scaled lipid accumulation score,,inactive: ≤ 0
N#Cc1nn(-c2c(Cl)cc(C(F)(F)F)cc2Cl)c(N)c1[S+]([O-])C(F)(F)F (stereo not drawn) [Fipronil],scaled lipid accumulation score,[1],inactive: ≤ -0.027
O=C1C[C@@H]2OCC=C3CN4CC[C@]56c7ccccc7N1[C@H]5[C@H]2[C@H]3C[C@H]46 [Strychnine],scaled lipid accumulation score,[3],inactive: ≤ 0
same,scaled lipid accumulation score,[1],inactive: ≤ 0
O=C1C[C@@H]2OCC=C3CN4CC[C@]56c7ccccc7N1[C@H]5[C@H]2[C@H]3C[C@H]46 [Strychnine HCl],scaled lipid accumulation score,[3],inactive: 0.044
CC[N+](CC)(CCCNC1=CC(=O)C(NCCC[N+](CC)(CC)Cc2ccccc2)=CC1=O)Cc1ccccc1 [Benzoquinonium dibromide],scaled lipid accumulation score,[1],inactive: 0.038
COc1cc2c(cc1O)C(CCc1ccc(Cl)cc1)N(C)CC2.Cl (stereo not drawn),scaled lipid accumulation score,[1],active: 0.872
CCC(=O)O[C@@](Cc1ccccc1)(c1ccccc1)[C@@H](C)CN(C)C [Levopropoxyphene napsylate],scaled lipid accumulation score,,inactive: 0.039
CCNC(=O)C[C@@H]1N=C(c2ccc(Cl)cc2)c2cc(OC)ccc2-n2c(C)nnc21,scaled lipid accumulation score,[4],inactive: ≤ 0
same,scaled lipid accumulation score,[5],inactive: ≤ 0
same,scaled lipid accumulation score,library stock concentration: 2 mM,inactive: ≤ 0
same,scaled lipid accumulation score,[2],inactive: ≤ -0.009
same,scaled lipid accumulation score,[1],inactive: 0.174 and inactive: ≤ 0
CC(C)(C)c1cc(C=C(C#N)C#N)cc(C(C)(C)C)c1O [Tyrphostin 9],scaled lipid accumulation score,[1],active: 1.27
COc1ccc(C[C@H]2NC[C@H](O)[C@H]2OC(C)=O)cc1 [Anisomycin] [listing 1 of 2 here],scaled lipid accumulation score,,active: 1.05
NCCc1cc(O)c(O)cc1O [Oxidopamine hydrochloride],scaled lipid accumulation score,library stock concentration: 9.7 mM,inactive: ≤ -0.001
same,scaled lipid accumulation score,[1],inactive: ≤ 0
C#C[C@]1(O)CC[C@H]2[C@@H]3CCC4=Cc5nc6nc7ccccc7n6cc5C[C@]4(C)[C@H]3CC[C@@]21C,scaled lipid accumulation score,[1],inactive: 0.151
COc1ccc(C[C@H]2NC[C@H](O)[C@H]2OC(C)=O)cc1 [Anisomycin] [listing 2 of 2 here],scaled lipid accumulation score,[1],active: 1.39
CN1c2ccccc2C(NCCCCCCC(=O)O)c2ccc(Cl)cc2S1(=O)=O (stereo not drawn) [Tianeptine sodium],scaled lipid accumulation score,[2],inactive: ≤ 0
same,scaled lipid accumulation score,[1],inactive: ≤ 0
CN1c2ccccc2C(NCCCCCCC(=O)O)c2ccc(Cl)cc2S1(=O)=O (stereo not drawn) [Tianeptine],scaled lipid accumulation score,[1],inactive: ≤ -0.006
C[C@H]1CCC/C=C/[C@@H]2C[C@H](O)C[C@H]2[C@H](O)/C=C/C(=O)O1 [Brefeldin A],scaled lipid accumulation score,[2],inactive: 0.583
same,scaled lipid accumulation score,[1],inactive: 0.42 and inactive: 0.138
same,scaled lipid accumulation score,library stock concentration: 17.8 mM,inactive: 0.771
Cc1ncc(CNC(=O)N(CCCl)N=O)c(N)n1 [Nimustine hydrochloride],scaled lipid accumulation score,[1],inactive: 0.089
Cc1ncc(CNC(=O)N(CCCl)N=O)c(N)n1 [Nimustine],scaled lipid accumulation score,[1],inactive: ≤ -0.027
CCCC(=O)N[C@H]1CCOC1=O [N-butyryl-L-Homoserine lactone],scaled lipid accumulation score,[6],inactive: 0.044
CNc1ccc(C(=O)CC(O)CCC(C)C2OC(=O)CC(O)CC(=O)CC(O)CC(O)CC(O)CC(O)CC3(O)CC(O)C(C(=O)OC)C(CC(O[C@@H]4O[C@H](C)[C@@H](O)[C@H](N)[C@@H]4O)/C=C/C=C/C=C/C=C/C=C/C=C/C=C/C2C)O3)cc1.COC(=O)C1C(O)CC2(O)CC(O)CC(O)CC(O)CC(O)CC(=O)CC(O)CC(=O)OC(C(C)CCC(O)CC(=O)c3ccc(N)cc3)C(C)/C=C/C=C/C=C/C=C/C=C/C=C/C=C/C(O[C@@H]3O[C@H](C)[C@@H](O)[C@H](N)[C@@H]3O)CC1O2 (stereo partly drawn) [Mepartricin],scaled lipid accumulation score,[1],inactive: 0.017
COc1ccc2[nH]cc(CCN)c2c1 [O-Methylserotonin hydrochloride],scaled lipid accumulation score,[1],inactive: ≤ -0.055
COc1ccc2[nH]cc(CCN)c2c1 [5-Methoxytryptamine],scaled lipid accumulation score,[1],inactive: ≤ 0
"C[N+]1(C)CCc2cc3c(cc2C1C1OC(=O)c2c1ccc1c2OCO1)OCO3 (single isomer, unassigned; (-)) [(-)-Bicuculline methobromide]",scaled lipid accumulation score,[1],inactive: ≤ 0
COc1ccc(/C=C\c2cc(OC)cc(OC)c2)cc1 [cis-trismethoxy Resveratrol],scaled lipid accumulation score,[6],inactive: 0.097
Oc1ccc2c3c1O[C@H]1c4[nH]c5c(c4C[C@@]4(O)[C@@H](C2)N(CC2CC2)CC[C@]314)C[C@@]1(O)[C@H]2Cc3ccc(O)c4c3[C@@]1(CCN2CC1CC1)[C@H]5O4 [nor-Binaltorphimine dihydrochloride],scaled lipid accumulation score,[1],inactive: ≤ -0.055 and inactive: ≤ 0
COc1cc(-n2c(=S)[nH]c3ccccc3c2=O)c(Cl)cc1Cl [Mdivi-1],scaled lipid accumulation score,[2],inactive: ≤ -0.009
same,scaled lipid accumulation score,[1],inactive: 0.07
CC(=O)Nc1ccc(Cc2ccc(NC(C)=O)cc2)cc1,scaled lipid accumulation score,[2],inactive: ≤ -0.009
same,scaled lipid accumulation score,[1],inactive: 0.136
N.N.[Cl][Pt][Cl] [Cisplatin],scaled lipid accumulation score,[2],inactive: ≤ 0
same,scaled lipid accumulation score,library stock concentration: 6.7 mM,inactive: ≤ 0
same,scaled lipid accumulation score,[1],inactive: ≤ 0 and inactive: 0.139
CCCN1C[C@H](CSC)C[C@@H]2c3cccc4[nH]cc(c34)C[C@H]21 [Pergolide methanesulfonate],scaled lipid accumulation score,[1],inactive: ≤ 0
CCCN1C[C@H](CSC)C[C@@H]2c3cccc4[nH]cc(c34)C[C@H]21,scaled lipid accumulation score,[1],inactive: 0.575
CCCN1C[C@H](CSC)C[C@@H]2c3cccc4[nH]cc(c34)C[C@H]21 [Pergolide mesylate],scaled lipid accumulation score,,inactive: 0.211
same,scaled lipid accumulation score,[2],inactive: ≤ 0
same,scaled lipid accumulation score,library stock concentration: 4.9 mM,inactive: 0.207
same,scaled lipid accumulation score,library stock concentration: 6.4 mM,inactive: 0.23
same,scaled lipid accumulation score,[1],inactive: 0.216 and inactive: 0.021
CN1CC[C@]23CCCC[C@H]2[C@H]1Cc1ccc(O)cc13,scaled lipid accumulation score,library stock concentration: 9.9 mM,inactive: ≤ 0
CCCCc1ccc(C(=O)O)nc1 [Fusaric acid],scaled lipid accumulation score,,inactive: ≤ 0
same,scaled lipid accumulation score,[1],inactive: ≤ -0.07
COc1ccc(CCN)cc1OC [Homoveratrylamine],scaled lipid accumulation score,[1],inactive: 0.046
CC1=C(O)C(=O)C=C2C1=CC=C1[C@@]2(C)CC[C@@]2(C)[C@@H]3C[C@](C)(C(=O)O)CC[C@]3(C)CC[C@]12C [Celastrol],scaled lipid accumulation score,[4],inactive: 0.019
same,scaled lipid accumulation score,[5],inactive: 0.093
same,scaled lipid accumulation score,[1],inactive: 0.392
Oc1cccc2cccnc12 [Oxyquinoline hemisulfate],scaled lipid accumulation score,[1],inactive: ≤ 0
CC(C)(O)C(Cl)(Cl)Cl,scaled lipid accumulation score,[1],inactive: ≤ 0
c1cc(Cc2cnc[nH]2)ccn1 [Immethridine dihydrobromide],scaled lipid accumulation score,[1],inactive: ≤ -0.001
C[N+](C)(C)CC#CCOC(=O)Nc1cccc(Cl)c1,scaled lipid accumulation score,[1],inactive: ≤ 0
